Hit rate of the full screen: of about 2,200 compounds, fewer than 10 were called active. The list shows a part of the results. Entries without a call are filed as inconclusive in the source.
These compounds were tested against GTPase KRas (Homo sapiens) (UniProt P01116) (assay: Fragment capture on engineered cysteines, share of protein labelled (AID 2202238)). Settings: KRAS G12D cysteine mutants, disulfide tethering, MALDI-TOF labeling; stronger effect = higher value; H27C mutant labeling; fragment at 500 µM.
UniProt P01116, sequence (P01116 whole entry, looked up, the tested form may be a part): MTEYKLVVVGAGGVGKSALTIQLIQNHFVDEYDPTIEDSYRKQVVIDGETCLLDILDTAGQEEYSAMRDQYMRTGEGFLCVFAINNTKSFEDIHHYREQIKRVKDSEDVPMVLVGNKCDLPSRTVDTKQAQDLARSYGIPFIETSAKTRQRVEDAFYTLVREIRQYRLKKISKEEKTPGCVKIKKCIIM
Design: protein at 5 µM with 500 µM competing thiol for 1.5 h
`CCC(C)(NC(=O)CCS)c1nc2c(c(=O)[nH]1)CCCC2` (stereo unspecified) was tested, and the percent labeling was 35.5%.
In the case of `O=C(CCS)N1CCC(c2nc(-c3ccccc3)no2)CC1`, the percent labeling was 37.9%.
`O=C(CCc1ccc2c(c1)NC(=O)CO2)NCCS` showed a percent labeling of 42.4%.
With `O=C(CCS)N1CCn2c(cc3ccccc32)C1` the percent labeling was 6.6%.
Work on `Cn1cc(C2CN(C(=O)CCS)CCO2)cn1` (stereo unspecified) yielded a percent labeling of 36.5%.
`CC(CC(N)=O)c1ccc(NC(=O)CCS)cc1` (stereo unspecified) showed a percent labeling of 33.8%.
`O=C(NCCS)C1(C(F)(F)F)CC=CCO1` (stereo unspecified) gave a percent labeling of 28.7%.
For `O=C(CCS)Nc1cc2ccccc2nc1Cl`, the percent labeling was 25.1%.
`O=C(NCCS)c1cc2c(=O)[nH]c3ccccc3c2s1` showed a percent labeling of 38.8%.
Compound `O=C(CCS)NCCn1ccc(=O)[nH]c1=O` has a percent labeling of 37.8%.
Compound `O=C(CCS)NCc1ccc(Oc2cccnc2)c(F)c1` has a percent labeling of 52.7%.
With `CCn1c(=O)[nH]c2cc(C(=O)NCCS)ccc2c1=O` the percent labeling was 28.9%.
For `Cc1c(C(=O)NCCS)nnn1-c1cccc2c1CCN(C)C2`, the percent labeling was 53.6%.
`O=C(CCS)Nc1c(F)cccc1-n1cccn1` was tested, and the percent labeling was 31.2%.
`CC1(C)CCCN1C1CCN(C(=O)CCS)CC1` showed a percent labeling of 40.4%.
For `Cc1oc(-c2cccs2)nc1C(=O)NCCS`, the percent labeling was 26.1%.
Compound `O=C(CCS)N1CCC(Oc2cncc(Cl)c2)CC1` has a percent labeling of 51.9%.
Compound `O=C(CCN1C(=O)CCc2cc(F)ccc21)NCCS` has a percent labeling of 29.2%.
`Cc1ccc(OCc2cccc(C(=O)NCCS)c2)cn1` showed a percent labeling of 34.8%.
With `Cn1cc(N2CCCC(N3CCN(C(=O)CCS)CC3)C2=O)cn1` (stereo unspecified) the percent labeling was 35.2%.
In the case of `CN1CCC(c2cccc(NC(=O)CCS)c2)CC1`, the percent labeling was 63.4%.
For `CC(C(=O)N(C)CC(=O)NCCS)n1cccn1` (stereo unspecified), the percent labeling was 27.3%.
`CCNC(=O)c1cccc(NC(=O)CCS)c1` showed a percent labeling of 40.1%.
Work on `O=C(NCCS)C1(O)CCC(C(F)(F)F)CC1` (stereo unspecified) yielded a percent labeling of 35.4%.
In the case of `O=C(CCS)Nc1ccc2c(c1)CCC(=O)N2`, the percent labeling was 47.6%.
Compound `O=C(CCS)Nc1cccc(Oc2ccccc2)c1` has a percent labeling of 28.7%.
Work on `O=C(CCS)NCCCC(=O)Nc1cn[nH]c1` yielded a percent labeling of 32.4%.
`CC(C)(C(=O)NCCS)c1ccc(C(F)(F)F)cc1` was tested, and the percent labeling was 26.7%.
`O=C(CCS)Nc1ccc(F)cc1Cn1ccsc1=O` showed a percent labeling of 47%.
Compound `Cc1nn(-c2ccccc2)c(C)c1C(=O)NCCS` has a percent labeling of 44.6%.
`O=C(Nc1sccc1C(=O)NCCS)c1ccc2c(c1)CCC2` was tested, and the percent labeling was 10.8%.
Work on `O=C(CCS)NC1(c2ccc(Br)cc2)COC1` yielded a percent labeling of 40.7%.
Compound `COc1cccc(-c2cc(CN(C)C(=O)CCS)[nH]n2)c1` has a percent labeling of 42.2%.
For `O=C(NCCS)c1ccc2c(c1)[nH]c(=O)n2CC(F)(F)F`, the percent labeling was 49.4%.
With `Cc1nc(-c2cccnc2)[nH]c(=O)c1CC(=O)NCCS` the percent labeling was 40.5%.
Compound `O=C(CCS)Nc1ccc2c(c1)C(=O)NCC2` has a percent labeling of 47.5%.
Compound `Cc1nc2cc(=O)[nH]n2c(C)c1CNC(=O)CCS` has a percent labeling of 27.3%.
`O=C(CCS)NC1CCC(O)(C(F)(F)F)CC1` (stereo unspecified) gave a percent labeling of 31.2%.
For `O=C(CC1(C(=O)NCCS)CCCC1)N1CCOCC1`, the percent labeling was 29.1%.
Compound `O=C(NCCS)c1csc(-c2cnccn2)n1` has a percent labeling of 55.1%.
With `O=C(CCS)Nc1ccccc1Oc1ncc(Cl)cc1Cl` the percent labeling was 30.4%.
`O=C(NC1(C(=O)NCCS)CCCC1)c1ccc2[nH]ncc2c1` was tested, and the percent labeling was 43.5%.
`Cc1ccc(N2CCCC2=O)c(C(=O)NCCS)c1` showed a percent labeling of 26.6%.
Compound `O=C(CCS)Nc1cnn2cc(Br)cnc12` has a percent labeling of 61.3%.
`Cc1c(CN2CCSCC2)cccc1NC(=O)CCS` was tested, and the percent labeling was 48.2%.
`CN1Cc2ccc(NC(=O)CCS)cc2C1=O` gave a percent labeling of 44.8%.
`Cn1c2c(ccc1=O)C(NC(=O)CCS)CCC2` (stereo unspecified) was tested, and the percent labeling was 31.4%.
`CN(CCO)C1(CNC(=O)CCS)CCCCC1` showed a percent labeling of 40.6%.
Work on `O=C(CNC(=O)N1CCc2ccccc2C1)NCCS` yielded a percent labeling of 29.6%.
`Cc1nc2nnnn2c(C)c1CCC(=O)NCCS` gave a percent labeling of 34.7%.
Work on `O=C(NCCS)c1ccc2ccccc2c1O` yielded a percent labeling of 20.9%.
`O=C(CCS)Nc1ccn(-c2ncccc2C(F)(F)F)n1` was tested, and the percent labeling was 42.1%.
For `Cc1ccc2[nH]cc(CCC(=O)NCCS)c2c1`, the percent labeling was 19.5%.
In the case of `CC(C)(C)CCC1(O)CC(C(=O)NCCS)C1` (stereo unspecified), the percent labeling was 20.3%.
For `COc1ccc2onc(CC(=O)NCCS)c2c1`, the percent labeling was 28.4%.
In the case of `Cc1nc2c3ccccc3nn2c(C)c1CCC(=O)NCCS`, the percent labeling was 19.1%.
Work on `O=C(CCS)N1CCC(n2ccnn2)CC1` yielded a percent labeling of 39.2%.
Work on `O=C(CCS)NCCn1cnc2ccccc2c1=O` yielded a percent labeling of 29.8%.
Work on `Cc1sc(-n2cccc2)c(C(=O)NCCS)c1C` yielded a percent labeling of 27.5%.
`O=C(CCS)NCc1ncc2c(n1)CCOC2` was tested, and the percent labeling was 9%.
`O=C(CCS)N1CCC2=C(C=NS(=O)(=O)N2)C1` showed a percent labeling of 18.5%.
`CN(C)CC1COC2(CCCC2)CN1C(=O)CCS` (stereo unspecified) gave a percent labeling of 44.8%.
For `CCc1cc(C(=O)NCCS)ccc1Br`, the percent labeling was 28.6%.
`O=C(NCCS)c1cc2scc(Br)c2[nH]1` was tested, and the percent labeling was 26.5%.
`Cc1ccn(-c2ccccc2NC(=O)CCS)n1` was tested, and the percent labeling was 27%.
Work on `Cc1cc(-n2cccc2)ccc1C(=O)NCCS` yielded a percent labeling of 35.3%.
For `CCCn1c(C(=O)NCCS)cc2ccccc21`, the percent labeling was 18.5%.
In the case of `O=C(CCS)NCC(=O)NC1CCC(O)CC1` (stereo unspecified), the percent labeling was 24%.
Compound `O=C(CC1CC(=O)Nc2ccccc21)NCCS` (stereo unspecified) has a percent labeling of 32.4%.
`Cc1onc(-c2ccsc2)c1C(=O)NCCS` showed a percent labeling of 28.4%.
`O=C(CCc1ncc[nH]1)NCCS` gave a percent labeling of 30.8%.
`CC1CCC(C(=O)NCCS)C2C(=O)N(c3ccccc3)C(=O)C12` (stereo unspecified) was tested, and the percent labeling was 31%.
`O=C(NCCS)C1CCC(c2ccccc2)CC1` (stereo unspecified) was tested, and the percent labeling was 18.7%.
Work on `O=C(CCS)NC1CC(N2CCC(C(F)(F)F)CC2)C1` (stereo unspecified) yielded a percent labeling of 48.3%.
`Cc1ccc(C(=O)NCCS)cc1N1C(=O)C2CCCCC2C1=O` (stereo unspecified) gave a percent labeling of 26.5%.
In the case of `O=C(CCS)N1CCC(c2nn(-c3ccccc3)cc2F)CC1`, the percent labeling was 37.4%.
`Cn1nc2c(c1NC(=O)CCS)CCCC2` gave a percent labeling of 36.5%.
Compound `Cc1c(Br)ccc2nc(C(=O)NCCS)cn12` has a percent labeling of 16.5%.
`Cc1cnc(OC2CCN(C(=O)CCS)CC2)nc1` was tested, and the percent labeling was 40.4%.
`Cc1noc(C)c1CN(C(=O)CCS)c1ccccc1` showed a percent labeling of 39.9%.
In the case of `O=C(NCCS)c1cc(C2CCOCC2)no1`, the percent labeling was 42.5%.
`O=C(COc1nsnc1N1CCOCC1)NCCS` was tested, and the percent labeling was 34.8%.
`O=C(CCS)N1CCN(c2cccc(F)c2F)CC1` showed a percent labeling of 42.2%.
`Cc1ccc2nc(COc3ccc(C(=O)NCCS)cc3)cn2c1` was tested, and the percent labeling was 21.2%.
In the case of `O=C(NCCS)c1nc(C2CC2)n(-c2ccccc2)n1`, the percent labeling was 49.9%.
`CCOC(=O)c1ccnc(C2(NC(=O)CCS)CC2)n1` gave a percent labeling of 31.3%.
With `O=C(CCC1Cc2ccccc2NC1=O)NCCS` (stereo unspecified) the percent labeling was 40.4%.
With `O=C(CCS)N1CCc2[nH]cnc2C1c1ccccc1` (stereo unspecified) the percent labeling was 49.2%.
Compound `CC(C)c1nc(-c2ccccc2Cl)ncc1C(=O)NCCS` has a percent labeling of 13.7%.
`O=C(NCCS)[C@@H]1CC[C@H](CN2CCOCC2)O1` showed a percent labeling of 21.4%.
For `O=C(CCS)NC1CCN(c2ncccn2)CC1`, the percent labeling was 41.8%.
